# From the supplement of paper PMC6135742
# Where a name gives a salt, the structure may show the parent alone. ± gives the standard deviation of the averaged measurements. The full ranking holds about 2,600 compounds; the median of “MBP+ mature oligodendrocyte number relative to DMSO vehicle control” is about -0.34, and the highest 2% start at about 13. Some of the results follow.
# Test system: jimpy (Plp1 jimpy) mouse iPSC-derived oligodendrocyte progenitor cells
# Experiment: MBP+ mature oligodendrocyte number relative to DMSO vehicle control (SDs above negative control mean); higher = more surviving jimpy oligodendrocytes (rescue)
# Settings: 10 µM; 3 days
# 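Also: 10 µM single dose with 3-day oligodendrocyte differentiation.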
row,SMILES,MBP+ mature oligodendrocyte number
1,CC(C)n1nc(-c2ccc3oc(N)nc3c2)c2c(N)ncnc21,< -6.01
2,N=C(N)Nc1ccc(C(=O)Oc2ccc3cc(C(=N)N)ccc3c2)cc1 [Nafamostat Mesylate],-3.03
3,COc1cc2nc(N(C)CCCNC(=O)C3CCCO3)nc(N)c2cc1OC (stereo not given) [Alfuzosin HCl],3.69
4,COc1cc2nc(N(C)CCCNC(=O)C3CCCO3)nc(N)c2cc1OC (stereo not given) [Alfuzosin hydrochloride],-0.394
5,Clc1ccc(Cn2c(CN3CCCC3)nc3ccccc32)cc1 [Clemizole hydrochloride],5.42
6,CCCCc1nc2cc(/C=C/C(=O)NO)ccc2n1CCN(CC)CC [Pracinostat (SB939)],< -5.15
7,O=C(O)/C=C/c1ccc(O)c(O)c1 [Caffeic Acid],1.07 ± 0.63
8,CC1(C)CC(=O)c2c(C(F)(F)F)nn(-c3ccc(C(N)=O)c(N[C@H]4CC[C@H](O)CC4)c3)c2C1,< -6.01
9,N#CSc1cc(SC#N)c(N)nc1N,-6.27
10,CC(=O)Oc1ccccc1C(=O)O [Aspirin],3.36
11,CC(=O)Oc1ccccc1C(=O)O [Acetylsalicylic acid],-0.865
12,"O=C(O)[C@H]1NCCC[C@H]1C(=O)O (racemic) [(±)-cis-Piperidine-2,3-dicarboxylic acid]",1
13,CNS(=O)(=O)CCc1ccc2[nH]cc(C3CCN(C)CC3)c2c1 [Naratriptan],3.94
14,CNS(=O)(=O)CCc1ccc2[nH]cc(C3CCN(C)CC3)c2c1 [Naratriptan hydrochloride],1.44
15,COc1ccc2ccc(=O)oc2c1CC=C(C)C [Osthole],0.0035
16,N=C(N)NS(=O)(=O)c1ccc(N)cc1 [Sulfaguanidine],4.63
17,C[C@]12CC[C@H](O)CC1=CC[C@@H]1[C@@H]2CC[C@]2(C)C(n3cnc4ccccc43)=CC[C@@H]12 [Galeterone],16.8
18,CC1=C(/C=C/C(C)=C/C=C/C(C)=C/C(=O)O)C(C)(C)CCC1 [Tretinoin],1.87
19,CC1=C(/C=C/C(C)=C/C=C/C(C)=C/C(=O)O)C(C)(C)CCC1 [Retinoic acid],1.11
20,"CC(O)C(O)[C@H]1CNc2nc(N)[nH]c(=O)c2N1 (stereo partly drawn) [(6R)-5,6,7,8-Tetrahydro-L-biopterin hydrochloride]",-1.5
21,NC(=O)C1=CN(C2OC(COP(=O)(O)OP(=O)(O)OC[C@H]3O[C@@H](n4cnc5c(N)ncnc54)C(OP(=O)(O)O)[C@H]3O)C(O)C2O)C=CC1 (stereo not given in full) [NADPH tetrasodium],0.186
22,C#Cc1cccc(Nc2ncnc3cc4c(cc23)OCCOCCOCCO4)c1 [Icotinib],-3.15
23,Cc1ccc(NCCCc2ccccc2)c(N)c1,< -6.35
24,CCc1c(C)[nH]c2c1C(=O)C(CN1CCOCC1)CC2 (stereo not given) [Molindone hydrochloride],-0.206
25,c1ccc(-c2[nH]ncc2-c2ccnc3ccccc23)nc1,-2.12
26,CC1=C(C(=O)O)N2C(=O)[C@@H](NC(=O)[C@H](N)C3=CCC=CC3)[C@H]2SC1 [Cephradine],-1.26
27,CC1(C)[C@H](C(=O)O)N2C(=O)C[C@H]2S1(=O)=O [Sulbactam sodium],3.47

row,SMILES,MBP+ mature oligodendrocyte number
1,CC1(C)[C@H](C(=O)O)N2C(=O)C[C@H]2S1(=O)=O [Sulbactam],1.96
2,Cc1ncc(CO)c(CO)c1O [Pyridoxine HCl],1.85
3,CN1CCc2cc(Cl)c(O)cc2[C@@H](c2ccccc2)C1,1.39
4,Nc1ccc(N2C(=O)c3ccccc3C2=O)c(Cl)c1 [N-(4-Amino-2-chlorophenyl)phthalimide],0.0777
5,CCN(CC)CCOC(=O)c1ccc(N)cc1 [Procaine hydrochloride],1
6,CCN(CC)CCOC(=O)c1ccc(N)cc1 [Procaine HCl],2.35
7,Clc1ccc(C(Cn2ccnc2)OCc2ccc(Sc3ccccc3)cc2)c(Cl)c1 (stereo not given) [Fenticonazole Nitrate],7.99
8,CC[C@H](C)C(=O)O[C@H]1C[C@@H](C)C=C2C=C[C@H](C)[C@H](CC[C@@H]3C[C@@H](O)CC(=O)O3)[C@H]21 [Lovastatin],-4.43
9,NC1CCN(O)C1=O (racemic),-0.197
10,COc1cccc2cc(-c3nc([C@H]4CC[C@H](C(=O)O)CC4)n4ncnc(N)c34)[nH]c12,-5.93
11,O=C1CCC[C@@H]2[C@H]3CCC[N+]4([O-])CCC[C@@H](CN12)[C@@H]34 (stereo not given in full) [Oxymatrine],-1.17
12,CC(=O)N[C@@H](CS)C(=O)O [Acetylcysteine],-0.107
13,CC(=O)N[C@@H](CS)C(=O)O [N-Acetyl-L-Cysteine],-0.0401
14,C[C@]1(c2nc3c(C(N)=O)cccc3[nH]2)CCCN1 [Veliparib (ABT-888)],1.85
15,O=C(O)Cc1cccc(OCCCN(Cc2cccc(C(F)(F)F)c2Cl)CC(c2ccccc2)c2ccccc2)c1,24.5
16,"O=c1cc(-c2ccccc2)[nH]c2nc(Cl)ccc12 [7-Chloro-4-hydroxy-2-phenyl-1,8-naphthyridine]",-0.119
17,O=c1[nH]c(=O)c2nc3ccccc3nc2[nH]1 [Alloxazine],-1.41
18,CC(=O)O[C@H]1C[C@@]2(C)[C@@H](C[C@@H](O)[C@H]3[C@@]4(C)CC[C@@H](O)[C@@H](C)[C@@H]4CC[C@@]32C)/C1=C(\CCC=C(C)C)C(=O)O [Fusidic acid sodium],1.08
19,O=c1[nH]c2cc(C(F)(F)F)ccc2n1-c1cc(C(F)(F)F)ccc1O,-1.11
20,COc1cc(C2Oc3cc([C@H]4Oc5cc(O)cc(O)c5C(=O)[C@@H]4O)ccc3OC2CO)ccc1O (stereo not given in full) [Silibinin],0.675
21,COc1cc(C2Oc3cc([C@H]4Oc5cc(O)cc(O)c5C(=O)[C@@H]4O)ccc3OC2CO)ccc1O (stereo not given in full) [Silymarin],-0.22
22,O=c1cc(-c2ccccc2)oc2cc(O)c(O)c(O)c12 [Baicalein],-2.74
23,N[C@@H](CCCC(=O)O)C(=O)O [L-2-aminoadipic acid],-0.119
24,CNC[C@H](O)[C@@H](O)[C@H](O)[C@H](O)CO [Meglumine],1.42
25,COC(=O)N[C@H](C(=O)N[C@@H](Cc1ccccc1)[C@@H](O)CN(Cc1ccc(-c2ccccn2)cc1)NC(=O)[C@@H](NC(=O)OC)C(C)(C)C)C(C)(C)C [Atazanavir Sulfate],-1.72
26,CCCCCCCCCC[Si](C)(C)CCC(=O)NC(Cc1ccc(C)cc1)c1ccccc1 (stereo not given) [Sandoz 58-035],1.88
27,COC(=O)Nc1ccc(-c2nc(N3CCOCC3)c3cnn(C4CCN(C(=O)OC)CC4)c3n2)cc1,-6.61

row,SMILES,MBP+ mature oligodendrocyte number
1,COCc1nc2c([nH]1)c(=O)n(C)c(=O)n2CC(C)C [8-Methoxymethyl-3-isobutyl-1-methylxanthine],-0.637
2,Cc1ccnc(NS(=O)(=O)c2ccc(N)cc2)n1 [Sulfamerazine],0.104
3,NC(=O)OCC(COC(N)=O)c1ccccc1 [Felbamate],1.43 ± 0.39
4,CCC[S+]([O-])c1ccc2[nH]c(NC(=O)OC)nc2c1 (stereo not given) [Albendazole Oxide],2.05
5,CCCCS(=N)(=O)CCC(N)C(=O)O (racemic) [L-Buthionine-sulfoximine],0.392
6,"CCCCS(=N)(=O)CCC(N)C(=O)O (racemic) [DL-Buthionine-[S,R]-sulfoximine]",-0.472
7,CC(C)n1c(/C=C/C(O)CC(O)CC(=O)O)c(-c2ccc(F)cc2)c2ccccc21 (stereo not given) [Fluvastatin Sodium],-4.97
8,O=c1ccn([C@@H]2O[C@H](CO)[C@@H](O)[C@H]2O)c(=O)[nH]1 [Uridine],-1.28
9,CC(C)(C)c1ccc(C(=O)CCCN2CCC(OC(c3ccccc3)c3ccccc3)CC2)cc1 [Ebastine],-5.41 ± 1.3
10,CCCCNc1cc(C(=O)O)cc(S(N)(=O)=O)c1Oc1ccccc1 [Bumetanide],0.63 ± 5.6
11,C[C@H](Cn1cnc2c(N)ncnc21)OCP(=O)(O)O [Tenofovir],1.16
12,Fc1ccc2[nH]c(CN3CCN(c4ccccn4)CC3)cc2c1,-1.89
13,C[C@H]1O[C@@H](n2cc(F)c(=O)[nH]c2=O)[C@H](O)[C@@H]1O [5-fluoro-5'-deoxyuridine],-0.491
14,C[C@H]1O[C@@H](n2cc(F)c(=O)[nH]c2=O)[C@H](O)[C@@H]1O [Doxifluridine],-0.197
15,C[n+]1cccc(C(N)=O)c1 [1-Methylnicotinamide chloride],-0.176
16,CC(C)(C)c1nc(-c2cccc(NS(=O)(=O)c3c(F)cccc3F)c2F)c(-c2ccnc(N)n2)s1,1.45
17,Clc1ccc(C(c2ccc(Cl)cc2)[n+]2ccn(CC(OCc3ccc(Cl)cc3Cl)c3ccc(Cl)cc3Cl)c2)cc1 (stereo not given) [Calmidazolium chloride],< -3.34
18,O=c1c(-c2ccc(O)cc2)coc2cc(O)ccc12 [Daidzein],2.34 ± 0.28
19,CC(C)NC[C@H](O)COc1cccc2ccccc12 [(S)-Propranolol hydrochloride],-0.39
20,CC1(C)CC[C@]2(C(=O)O)CC[C@]3(C)C(=CC[C@@H]4[C@@]5(C)CC[C@H](O)C(C)(C)[C@@H]5CC[C@]43C)[C@@H]2C1 [Oleanolic Acid],-0.612
21,O=C(O)CCCCC(CCSCc1ccccc1)SCc1ccccc1 (stereo not given),2.25
22,CC(=O)CCCCn1c(=O)c2c(ncn2C)n(C)c1=O [Pentoxifylline],0.696
23,Nc1c(CC(=O)O)cccc1C(=O)c1ccc(Br)cc1 [Bromfenac Sodium],5.22
24,OCCN1CCN(CCCN2c3ccccc3C=Cc3ccccc32)CC1 [Opipramol dihydrochloride],-0.59
25,O=C(O)C=C1CCCc2ccccc2C1O (stereo not given),-0.167
26,COc1cccc(Nc2c(C(N)=O)cnc3c(C)cc(S(=O)(=O)c4cccc(C(=O)N(C)C)c4)cc23)c1,7.8
